From PubChem BioAssay AID588855 (National Center for Advancing Translational Sciences (NCATS), 2011)
Screen size: about 410,000 compounds; about 5,000 (1.2%) were called active. This list was built around the results that the source calls inconclusive (neither active nor inactive); the mix of calls is not that of the screen. The call rests on the fitted dose curve; in most records, active means well fitted inhibition curve with a large enough effect; inconclusive means small, poorly fitted or top-dose-only effect; inactive means no such curve, though single readings can be large or run the other way. Potencies beside an inconclusive call are fits to weak or partial responses and may not hold up.
Potency means the concentration at half of the fitted maximal effect; tags describe the fitted curve by direction and shape.

Experiment: qHTS for Inhibitors of TGF-b; further: nearly all actives have a fitted effect of over 65% in size
Conditions: HepG2 CAGA-GFP TGF-b/SMAD3 reporter, GFP fluorescence, 18 h, TGF-beta stimulated, 500 pg/mL final; series mostly up to 46.1 µM
Summary of the method: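 Per well, imaged GFP fluorescence of HEPG2 CAGA-GFP cells gives the signal; cells get compound, then TGF-beta (500 pg/mL final), 18 h at 37 degrees C; %Activity versus -TGF-beta and +DMSO controls.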
In the case of `COc1ccc(-c2cc(-c3nnc(COC(=O)C4CC4)o3)c3ccccc3n2)cc1OC`, the Potency was inconclusive: 3.98 µM [inhibitor, single point]. In the case of `COc1cccc(CN2CCN(C(=O)c3cccc(OC)c3)CC2)c1`, the Potency was “inactive”. For `CCOC(=O)C1=C(Nc2ccccc2)CC(C)(O)C(C(=O)OCC)C1c1ccc(Br)cc1` (stereo not drawn), the Potency was inconclusive: 35.5 µM [inhibitor, single point]. In the case of `COc1cc(C)c(Br)cc1S(=O)(=O)NCc1ccccc1`, the Potency was inconclusive: 20 µM [inhibitor, single point]. In the case of `CC(=O)c1sc2nc(C)cc(C)c2c1N`, the Potency was “inactive”. For `CCOC(=O)C1(CCCc2ccccc2)CCN(C(=O)c2cc(C)nn2CC)CC1`, the Potency was inconclusive: 8.91 µM [inhibitor, partial curve, poor fit]. In the case of `O=C(Oc1ccc(O)cc1)C12CC3CC(CC(C3)C1)C2`, the Potency was inconclusive: 14.1 µM [inhibitor, single point]. For `COc1cc(/C=N/Nc2nc(Nc3ccccc3)nc(-n3nc(C)cc3C)n2)cc(OC)c1OC`, the Potency was inconclusive: 35.5 µM [inhibitor, single point]. In the case of `Brc1ccc(-c2nc3ccccn3c2Nc2ccc3c(c2)OCCO3)o1`, the Potency was inconclusive: 35.5 µM [inhibitor, single point]. In the case of `CCCCN(CC)C(=O)CSc1nc2n[nH]c(C)c2c(=N)n1-c1cccc(OC)c1`, the Potency was active: 4.47 µM. For `O=C1CN(C(=O)C2CCC(=O)N(CCc3ccc(Cl)cc3)C2)CCN1` (stereo not drawn), the Potency was inconclusive: 5.62 µM [inhibitor, single point]. In the case of `CS(=O)(=O)c1ccc(C(=O)Nc2cc(S(C)(=O)=O)ccc2Cl)cc1`, the Potency was “inactive”. For `C=CCn1c(SCC(=O)NC(=O)NCCC)nnc1C1CCCCC1`, the Potency was inconclusive: 2.82 µM [inhibitor, partial curve, poor fit]. In the case of `Cc1c(O)ccc(/C(Cc2ccc3ccccc3n2)=N\N)c1O`, the Potency was inconclusive: 35.5 µM [inhibitor, single point]. With `Cc1oc(-c2ccc(Cl)cc2)nc1CS(=O)CC(=O)N1CCN(c2cccc(C(F)(F)F)c2)CC1` (stereo not drawn) the Potency was active: 8.91 µM. For `COc1cccc(N2CCN(c3ncnc4c3nc3n4CCCCC3)CC2)c1`, the Potency was inconclusive: 35.5 µM [inhibitor, single point]. For `COc1cc(OC)cc(C(=O)NNC(=O)C(CCC(N)=O)NS(=O)(=O)c2ccc(Cl)cc2)c1` (stereo not drawn), the Potency was “inactive”. With `Cc1cc(S(=O)(=O)N2CCN(CC(=O)NC(C)(C#N)C3CC3)CC2)ccc1Br` (stereo not drawn) the Potency was inconclusive: 35.5 µM [inhibitor, single point]. In the case of `COc1ccc(C(=O)NNC(=O)CSc2nnc(-c3ccc(O)cc3)n2C)cc1`, the Potency was “inactive”. In the case of `Fc1cccc(NC(=S)Nc2ccc(Br)cc2)c1`, the Potency was inconclusive: 20 µM [inhibitor, single point]. With `COc1cc(NS(=O)(=O)c2ccc(NC(C)=O)cc2)cc(OC)c1` the Potency was inconclusive: 6.31 µM [inhibitor, single point]. For `CCOC(=O)N1CCN(Cc2nc3cc(NC(=O)c4ccccc4[N+](=O)[O-])ccc3n2C(C)C)CC1`, the Potency was “inactive”. With `O=S(=O)(c1ccc(Cl)cc1)c1snnc1-c1ccccc1` the Potency was active: 14.1 µM. In the case of `Cc1ccc(-n2c3nc(=O)[nH]c(=O)c-3cc3c(C)nn(-c4ccccc4)c32)cc1Cl`, the Potency was “inactive”. In the case of `Cc1cc(C(=O)N2CCCC(N3CCN(c4cccc(C(F)(F)F)c4)CC3)C2)c(C)o1` (stereo not drawn), the Potency was inconclusive: 22.4 µM [inhibitor, single point]. For `COc1ccc(-n2nc(C(=O)NCC(=O)NCc3cccc(F)c3)c3ccccc3c2=O)cc1Cl`, the Potency was inconclusive: 35.5 µM [inhibitor, single point]. In the case of `N#CC1=C(c2ccccc2)/C(=C/c2ccccc2)OC1=O`, the Potency was inconclusive: 7.08 µM [inhibitor, full curve]. In the case of `O=S(=O)(Nc1nc(SCc2ccc(Cl)cc2)n[nH]1)c1ccc(F)cc1`, the Potency was inconclusive: 35.5 µM [inhibitor, single point]. In the case of `Cc1ccc(S(=O)(=O)N2CCN(C(=O)COC(=O)COc3ccc(Cl)cc3C)CC2)c(C)c1`, the Potency was “inactive”. For `CCc1cccc(C)c1Nc1c(-c2ccccc2)nc2sccn12`, the Potency was inconclusive: 15.8 µM [inhibitor, partial curve, poor fit]. With `Cc1cccc(N2CCN(Cc3ccc(Br)o3)CC2)c1C` the Potency was inconclusive: 7.08 µM [inhibitor, partial curve, poor fit]. In the case of `COC(=O)c1ccc(NC(=O)c2cccc(C)c2[N+](=O)[O-])cc1`, the Potency was “inactive”. For `CCOc1ccc(NC(=O)Nc2cccn(Cc3ccccc3)c2=O)cc1`, the Potency was “inactive”. With `Cc1cccc(-n2cc(-c3ccccc3)c3c(NN4CCOCC4)ncnc32)c1` the Potency was “inactive”. With `O=S(=O)(c1ccc(Br)cc1Cl)N1CCCN(c2ccc(C(F)(F)F)cn2)CC1` the Potency was inconclusive: 25.1 µM [inhibitor, single point]. For `Cc1cc(F)ccc1NC(=O)CCS(=O)(=O)c1ccc2c(c1)CC(C)N2C(=O)C1CC1` (stereo not drawn), the Potency was inconclusive: 35.5 µM [inhibitor, single point]. For `O=S(=O)(c1ccccc1)N1CCN(c2nnc(-c3ccccc3)c3ccccc23)CC1`, the Potency was “inactive”. For `O=C(C1COc2ccccc2O1)N1CCN(c2nc3ccc(F)cc3s2)CC1` (stereo not drawn), the Potency was inconclusive: 22.4 µM [inhibitor, single point]. In the case of `COc1ccc(N2C(=O)CC(c3cc(OC)c(OC)c(OC)c3)CC2=O)cc1`, the Potency was inconclusive: 5.62 µM [inhibitor, single point]. With `CC(C)Oc1cc(F)ccc1-c1cc(C(=O)Nc2cccc(Cl)c2)[nH]n1` the Potency was inconclusive: 35.5 µM [inhibitor, single point]. In the case of `Cc1noc(-c2ccc(-c3noc(-c4cccc(F)c4)n3)cc2)n1`, the Potency was “inactive”. In the case of `O=C(C1=C[C@H](c2ccc(Br)cc2)C[C@H](OCc2ccc(CO)cc2)O1)N1CCN(Cc2ccc3c(c2)OCO3)CC1`, the Potency was inconclusive: 20 µM [inhibitor, single point]. For `CCN1CCCC1CN(Cc1cc2ccc(C)cc2[nH]c1=O)C(=S)Nc1ccc(OC)cc1` (stereo not drawn), the Potency was inconclusive: 35.5 µM [inhibitor, single point].
